This is one part of the list.
What was measured:
Assay in all cases: glycan array binding signal (z-score within array); higher = stronger binding
Conditions in all cases: glycan notation: IUPAC condensed, linker removed
[1] = target: Gal(b1-3)GalNAc(b1-4)Gal(b1-4)Glc
In short: (§1)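 Arrays were curated from the Consortium for Functional Glycomics database, 3228 in total, and kept only where the protein sequence was available. Binding is expressed as a within-array Z-score. This score was averaged across arrays of the same protein sequence at different concentrations or buffers and across linkers, and negative values can be read as non-binding.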

[2] = target: Gal(b1-3)GalNAc(b1-4)Gal3S(b1-4)Glc
In short: as §1

[3] = target: Gal(b1-3)GalNAc(b1-4)[Neu5Ac(a2-3)]Gal(b1-4)Glc
In short: as §1

[4] = target: Gal(b1-3)GalNAc(b1-4)[Neu5Gc(a2-3)]Gal(b1-4)Glc
In short: as §1

[5] = target: Gal(b1-3)GlcNAc
In short: as §1

[6] = target: Gal(b1-3)GlcNAc(b1-3)Gal(b1-4)Glc
In short: as §1

[7] = target: Gal(b1-3)GlcNAc(b1-3)Gal(b1-4)GlcNAc(b1-3)Gal(b1-4)Glc
In short: as §1

[8] = target: Gal(b1-3)GlcNAc(b1-3)Gal(b1-4)GlcNAc(b1-6)[Gal(b1-3)GlcNAc(b1-3)]Gal(b1-4)Glc
In short: as §1

[9] = target: Gal(b1-3)GlcNAc(b1-3)Gal(b1-4)[Fuc(a1-3)]GlcNAc(b1-3)Gal(b1-4)Glc
In short: as §1

[10] = target: Gal(b1-3)GlcNAc(b1-3)Gal(b1-4)[Fuc(a1-3)]GlcNAc(b1-6)[Gal(b1-3)GlcNAc(b1-3)]Gal(b1-4)Glc
In short: as §1

[11] = target: Gal(b1-3)GlcNAc(b1-3)[Fuc(a1-3)[Gal(b1-4)]GlcNAc(b1-6)]Gal(b1-4)Glc
In short: as §1

[12] = target: Gal(b1-3)GlcNAc(b1-3)[Fuc(a1-3)[Gal(b1-4)]GlcNAc(b1-6)]Gal(b1-4)]GlcNAc(b1-6)[Gal(b1-4)]GlcNAc(b1-3)]Gal(b1-4)Glc
In short: as §1

[13] = target: Gal(b1-3)GlcNAc(b1-3)[Gal(b1-4)GlcNAc(b1-6)]Gal(b1-4)Glc
In short: as §1

[14] = target: Gal(b1-3)GlcNAc(b1-3)[Gal(b1-4)GlcNAc(b1-6)]Gal(b1-4)GlcNAc(b1-6)[Gal(b1-3)GlcNAc(b1-3)]Gal(b1-4)Glc
In short: as §1

[15] = target: Gal(b1-3)[Fuc(a1-4)]GlcNAc
In short: as §1

[16] = target: Gal(b1-3)[Fuc(a1-4)]GlcNAc(b1-3)Gal(b1-4)Glc
In short: as §1

[17] = target: Gal(b1-3)[Fuc(a1-4)]GlcNAc(b1-3)Gal(b1-4)[Fuc(a1-3)]Glc
In short: as §1

[18] = target: Gal(b1-3)[Fuc(a1-4)]GlcNAc(b1-3)Gal(b1-4)[Fuc(a1-3)]GlcNAc(b1-3)Gal(b1-4)Glc
In short: as §1

[19] = target: Gal(b1-3)[Fuc(a1-4)]GlcNAc(b1-3)Gal(b1-4)[Fuc(a1-3)]GlcNAc(b1-6)[Gal(b1-3)[Fuc(a1-4)]GlcNAc(b1-3)]Gal(b1-4)Glc
In short: as §1

[20] = target: Gal(b1-3)[Fuc(a1-4)]GlcNAc(b1-3)[Fuc(a1-3)[Gal(b1-4)]GlcNAc(b1-6)]Gal(b1-4)Glc
In short: as §1

[21] = target: Gal(b1-3)[Neu5Ac(a2-6)]GlcNAc(b1-3)Gal(b1-4)Glc
In short: as §1

[22] = target: Gal(b1-4)Glc
In short: as §1

Measured: glycan array binding signal (z-score)

B1: ZG16p (Homo sapiens), O60844 (protein)
chain: ARSSSYSGEYGGGGGKRFSHSGNQLDGPITALRVRVNTYYIVGLQVRYGKVWSDYVGGRNGDLEEIFLHPGESVIQVSGKYKWYLKKLLFVTDKGRYLSFGKDSGTSFNAVPLHPNTVLRFISGRSGSLIDAIGLHWDVYPSSCSRC
0.304: [5]
-0.232: [13]
-0.215: [15]
-0.328: [1] | [2] | [3] | [4] | [6] | [7] | [8] | [9] | [10] | [11] | [12] | [14] | [16] | [17] | [18] | [19] | [20] | [21]
-0.133: [22]

From the supplement of paper PMC8728848
